Source: ChEMBL document CHEMBL5308541, “MAIP: An Open-Source Tool to Enrich High-Throughput Screening Output and Identify Novel, Druglike Molecules with Antimalarial Activity” (ACS Med Chem Lett, 2023)
About 540 (0.36%) of roughly 150,000 compounds showed an effect of 50% or more. This is one part of the list.

tested on: Plasmodium falciparum; assay: Primary screen in NF54 nanoGlo assay, in single point, at 2uM, 72h; a lower Z score goes with more inhibition; assay type: functional, Erythrocyte; conditions: timepoint 72 hour

Row | SMILES | % Inhibition [%] | Z score
1 | COC(=O)CN1CCC[C@H](CNc2ncnc3ccc(F)cc23)C1 | 1 | -0.11
2 | CCc1noc(C)c1NC(=O)C(C)(C)COCc1ccccc1 | -8 | 1.49
3 | CNS(=O)(=O)CC1CCCN(C(=O)NC2CCC(c3ccccc3F)C2)C1 (configuration not stated) | -6 | 1.36
4 | C#CCC(CC#C)C(=O)NCCCCOC | -3 | 0.53
5 | Cc1ccn2ncc(C(=O)N[C@H]3CCN(C4CCN(C)CC4)C3)c2n1 | -12 | 1.89
6 | Cc1cc(C)c(C#N)c(Oc2ccc(CN3CCCC3)cc2F)n1 | 1 | -0.31
7 | CC(C)(C)OC(=O)N1CC[C@H](Oc2ccnc(-c3noc(-c4cc[nH]n4)n3)c2)C1 | -5 | 0.78
8 | Cc1cnn(C)c1S(=O)(=O)NCc1ccc(CCO)cc1 | -10 | 1.81
9 | Cc1nc(C(=O)N(C)CC2CCN(Cc3ccccc3)CC2)c(C)o1 | -6 | 1.19
10 | CN(CCOc1ccc(F)cc1)C(=O)c1cccc2ncccc12 | 3 | -0.65
11 | Cc1cc(C(=O)N2CC3(CCC3)[C@@H]2C(C)C)ccc1S(N)(=O)=O | -13 | 2
12 | CCN1CCC(N2C[C@H](NC(=O)c3cccc(-c4cccc(F)c4)c3)C[C@H]2C(=O)OC)CC1 | 7 | -1.27
13 | Cc1nnc(N2CC(C)(C)O[C@]3(CCOC3)C2)o1 | 0 | -0.03
14 | CC(C)(C)c1ccc(O)c(NC(=O)c2c[nH]c3ccccc3c2=O)c1 | -1 | 0.14
15 | Cc1ccn2c(C(=O)N(CCO)Cc3c(C)nn(C)c3C)c(C)nc2c1 | -8 | 1.53
16 | CNc1nc(-c2cccc(C(=O)N3CCN([C@H]4CCNC4)CC3)c2)ncc1F | -7 | 1.26
17 | COc1ccc2c(CCNc3nc(-c4ccc(C5CCCCC5)cc4)cs3)c[nH]c2c1 | -1 | 0.26
18 | O=C(OCc1ccccc1C(F)(F)F)c1cccnc1Nc1cccc(F)c1 | -11 | 1.72
19 | FC(F)(F)CN1CC[C@H](NC2CCN(c3nccs3)CC2)C1 | -13 | 2.21
20 | Cc1ccccc1C[C@H](NCc1ccc(NC(N)=O)cc1)C1CC1 | 10 | -1.48
21 | Cc1nnnn1CCC(=O)NC1CCOCC1Oc1ccc(C(=O)O)cc1 (configuration not stated) | 1 | -0.19

Row | SMILES | % Inhibition [%] | Z score
22 | COc1cc2c(cc1OC)C1(CCN(C(=O)c3cnc(C4CC4)[nH]c3=O)CC1)OCC2 | -11 | 2.21
23 | O=C(c1cc(-c2ccccc2)[nH]n1)N1CCC(c2nc3cc(C(F)(F)F)ccc3s2)CC1 | 3 | -0.4
24 | COCCN1CCC(CN(C)Cc2cscn2)CC1 | 8 | -1.36
25 | COc1ccc2oc(C)c(C(=O)NCc3ccc(F)cc3C(F)(F)F)c2c1 | 6 | -1.15
26 | O=C(NCCc1nc2cc(Cl)ccc2[nH]1)c1ccc(-c2ccsc2)nc1N1CCCC1 | -10 | 1.82
27 | COc1ccc(Nc2ncc(CN(C)CCn3ccnc3)s2)cc1 | 1 | -0.26
28 | COC(=O)[C@@H]1CCCN1C(=O)Cc1ccc(N2CCC(NCc3cnc4ccccn34)CC2)cc1 | -7 | 1.42
29 | Cc1noc2ncnc(NCc3ccnc(OC4CCCCC4)c3)c12 | -3 | 0.44
30 | CN(Cc1ccc(Oc2ncccn2)cc1)CC1CCN(CCc2ccc(F)cc2)CC1 | -5 | 0.81
31 | O=C(NC(CO)Cc1c[nH]c2ccccc12)C1CN2CCCN1CC2 (configuration not stated) | -7 | 1.3
32 | CC1CC(Nc2nc(-c3ccnc(C(F)(F)F)c3)cs2)CCO1 (configuration not stated) | -4 | 0.93
33 | CN(C)c1nc(NCc2cccc(CN3CCCC3)c2)ncc1F | -6 | 1.11
34 | O=c1cc(-c2ccccc2Cl)nc(-c2ccc(CN3CCCNCC3)cc2)[nH]1 | -2 | 0.43
35 | Nc1nccc([C@H]2CCCN(Cc3nc4cc(F)ccc4o3)C2)n1 | -2 | 0.27
36 | CC(C)(C)c1ccc(CCCNCCN2CCNCC2)cc1 | 17 | -3.58
37 | Fc1ccc2cc(CN[C@H]3CCO[C@@H]3c3cccnc3)[nH]c2c1 | 1 | -0.18
38 | CC(C)c1ccc(-c2nc(CN3CCCCC3)cc(CN3CCCCC3)c2O)cc1 | 90 | -15.77
39 | Cc1cc(N2CCCN(C[C@H]3CN(Cc4ccccc4)CCCO3)CC2)ccn1 | -3 | 0.52
40 | O=C(NC1CCNCC1O)c1ccc(-c2ccc(Cn3ccnc3)cn2)cc1 (configuration not stated) | -6 | 1.35
41 | CCN(Cc1cnn(-c2cccc(Cl)c2)c1)CC1CCN(C2CCN(C)CC2)CC1 | 82 | -14.12
42 | Cc1ccc2cccc(C(=O)Nc3c(-c4nc5ccccc5[nH]4)cnn3C)c2n1 | -2 | 0.27

Row | SMILES | % Inhibition [%] | Z score
43 | CC1CN(c2ccccc2NC(=O)c2ccc(-c3cnco3)cc2)CC(C)O1 (configuration not stated) | 24 | -4.19
44 | CCCOc1ccc(C(=O)O)cc1NS(=O)(=O)c1c(C)cnn1C | 3 | -0.57
45 | Cc1nc2n(c1C(=O)N(C)C)CCN(C(=O)CN1C(=O)OC(C)(C)C1=O)C2 | 2 | -0.32
46 | C#CCN(Cc1ccc(F)cc1)C(=O)c1ccc2c(c1)nc(C)n2[C@H]1CCS(=O)(=O)C1 | -9 | 1.88
47 | Cc1ccc(CN2CCC(CNc3nccc(-c4ccccn4)n3)CC2)o1 | -3 | 0.73
48 | COc1cc(Cn2cc(S(=O)(=O)N(C)C)cn2)ccc1C | 8 | -1.66
49 | CC1CCCN(c2cc(-c3nc(C4CCC(F)(F)C4)no3)ccn2)C1 (configuration not stated) | -1 | 0.11
50 | O=C(c1cc2c(F)cccc2[nH]1)N1CCC(CN2CCOCC2)CC1 | -6 | 0.96
51 | Cc1cnccc1N1CCCN(c2cncc(C(=O)N3CCN(C)CC3)n2)CC1 | -5 | 0.82
52 | COc1cc(CCC(=O)N2CCN(C)[C@@H](CCO)C2)ccc1C | -11 | 1.88
53 | N#Cc1ccccc1-c1c(-c2ccccc2)ncn1CCN1CCC[C@H](C(N)=O)C1 | -2 | 0.34
54 | Cc1nc([C@H]2C[C@@H](Nc3nccc(N4CCC(O)CC4)n3)C2)cc(=O)[nH]1 | 4 | -0.7
55 | OCCOCCCNC1C2COCC1CN(Cc1ccccc1)C2 (configuration not stated) | -5 | 0.93
56 | Cc1cc(N[C@H]2CCO[C@@H]2c2nccn2C)c2cc(OC(F)F)ccc2n1 | 1 | -0.19
57 | c1ccc(-c2nc(-c3ccncc3)no2)c(O[C@H]2CCN(Cc3ccc4c(c3)CCO4)C2)c1 | -2 | 0.38
58 | CCOc1ccc2nc(N3CCC[C@H](C(=O)N(C)Cc4ccc5nccnc5c4)C3)nc(C)c2c1 | -2 | 0.32
59 | C[C@@H](c1cccc(-c2ccc(O)c(-c3ccno3)c2)c1)N1CCCC1 | -2 | 0.41
60 | O=C1[C@@H](NCc2ccc3ncccc3c2)CCCN1c1ccccc1F | -2 | 0.32
61 | CN(CC(=O)N[C@@H]1C=CCCC1)Cc1cccnc1 | -5 | 1.01
62 | CN1CCC(CN[C@H]2CCN(c3ccccc3)C2)(c2ccccc2)CC1 | -11 | 1.96
63 | CC1CN(c2ccccc2CNCC2CCN(C3CC3)C2)CC(C)O1 (configuration not stated) | -2 | 0.27

Row | SMILES | % Inhibition [%] | Z score
64 | OC1(c2ccccc2)CCCC2CN(c3ncnc4[nH]ccc34)CC21 (configuration not stated) | 0 | -0.11
65 | CCc1nn(C)c(Cl)c1CNCCCN1CCCN(C)CC1 | -1 | 0.11
66 | CCCc1nnc(NCc2cc3cc(OC)ccc3o2)o1 | -5 | 0.93
67 | CC[C@@H](C(=O)NC)n1cnc(-c2ccccc2)c1-c1cccc2cnccc12 | 3 | -0.56
68 | COc1cc(C(=O)O)ccc1S(=O)(=O)NC(C)(C)c1nccs1 | 0 | 0.1
69 | Cc1nc(NC2CCN(C3CCOCC3)CC2)cc([C@H]2C[C@H](N)C2)n1 | -7 | 1.24
70 | Cn1ncc2c(N)nc(N3CCC(O)(c4ccccc4)C4CCCCC43)nc21 (configuration not stated) | -7 | 1.3
71 | CC[C@H]1C(=O)N(C)CCN1C(=O)c1cc(C(F)(F)F)ccc1Cl | -6 | 1.19
72 | C[C@@H](c1ccc(-c2ccc3[nH]c(CO)nc3c2)cc1)N1CCCCC1 | -8 | 1.74
73 | FC(F)(F)Oc1ccc(Nc2ncncc2-c2nc(-c3ccsc3)no2)cc1 | -4 | 0.84
74 | CCN1CCN(c2cc(CN[C@H]3CCCOc4ccc(C)cc43)ccn2)CC1 | 12 | -2.09
75 | COc1ccc(-c2cc(C(=O)NC3CCN(c4cc(C(F)(F)F)ncn4)CC3)[nH]n2)cc1 | 9 | -1.56
76 | COc1ccccc1N1CCN(C2CCN(c3ccc(C(=O)N[C@@H](C)c4ccccc4)cc3)CC2)CC1 | -11 | 1.99
77 | Fc1cccc2c(Nc3cccc(CN4CCOCC4)c3)ncnc12 | -13 | 2.32
78 | CC(C)c1cc(NCc2ccc3cc[nH]c3c2)n2nccc2n1 | -4 | 0.87
79 | Nc1nc2c(c(NCC3(N4CCOCC4)CCCC3)n1)CCNCC2 | -2 | 0.39
80 | CCOC1CC(CNCc2cc(-c3ccccc3)ccc2OC)(N2CCOCC2)C1 (configuration not stated) | 16 | -3.11
81 | CC(C)(C)OC(=O)N1CCC(CN2CCCN(Cc3ccc(F)cc3)CC2)CC1 | -1 | 0.12
